Source: PubChem BioAssay AID1434 (Sanford-Burnham Center for Chemical Genomics, 2008)
The list shows a part of the results. Further columns of the screen follow, without active or inactive calls. Most of these compounds were active or inconclusive in the main read-out, so they are no random draw.

target: Runt-related transcription factor 1 (Homo sapiens) + Core-binding factor subunit beta (Homo sapiens) (UniProt Q01196+Q13951); test: disruptors of Runt domain/CBFb-SMMHC interaction – biochemical, FRET, Cerulean-Runt, Venus-CBFb-SMMHC, uHTS, primary screen (AID 1434); conditions: Cerulean-Runt/Venus-CBFb-SMMHC FRET ratio 530/480, 1 h; retest duplicate average; at 20 µM; stronger effect = higher value;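 further: 0% = DMSO wells and 100% = wells with excess untagged CBFb-SMMHC; inhibitors lower the FRET ratio by blocking Runt binding to CBFb-SMMHC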
UniProt Q01196, sequence (Q01196 whole entry, looked up, the tested form may be a part): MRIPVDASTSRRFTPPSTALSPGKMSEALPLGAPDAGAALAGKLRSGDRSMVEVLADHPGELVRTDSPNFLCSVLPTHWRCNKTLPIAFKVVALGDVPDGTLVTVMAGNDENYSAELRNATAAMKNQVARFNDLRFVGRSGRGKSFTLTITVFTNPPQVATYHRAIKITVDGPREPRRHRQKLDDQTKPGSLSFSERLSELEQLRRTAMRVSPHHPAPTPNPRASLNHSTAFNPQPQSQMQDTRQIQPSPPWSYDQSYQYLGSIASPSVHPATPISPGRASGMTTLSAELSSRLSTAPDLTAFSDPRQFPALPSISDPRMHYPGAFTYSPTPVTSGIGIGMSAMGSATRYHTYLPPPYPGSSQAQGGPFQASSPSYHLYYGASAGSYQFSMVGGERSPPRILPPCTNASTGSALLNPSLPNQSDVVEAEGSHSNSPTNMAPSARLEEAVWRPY
UniProt Q01196, sequence (Q13951 whole entry, looked up, the tested form may be a part): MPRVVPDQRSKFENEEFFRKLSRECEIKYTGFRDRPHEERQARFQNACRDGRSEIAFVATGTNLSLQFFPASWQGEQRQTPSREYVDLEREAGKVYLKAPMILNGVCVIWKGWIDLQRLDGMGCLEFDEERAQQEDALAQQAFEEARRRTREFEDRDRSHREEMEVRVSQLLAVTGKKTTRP

Structure (SMILES) | inhibition [%]
O=c1[nH]c(C(Cl)Cl)nc2sc3c(c12)CCN(Cc1ccccc1)C3 | 71.5
Cc1cccc(/C=N/c2sc3c(c2C#N)CCN(Cc2ccccc2)C3)c1O | 124
Cc1cc(-n2c(=O)c(C#N)cc3c(=O)n4ccccc4nc32)no1 | 72.9
COc1cccc(C(=O)Nc2sc3c(c2C#N)CCN(C(C)=O)C3)c1 | 75.5
CC1CCCCC1NC(=O)COC(=O)c1c2c(nc3ccccc13)/C(=C/c1ccco1)CC2 (stereo not given) | 142
Oc1c(Cl)cc(Cl)cc1/C=N/NC(=S)NC1CC2C=CC1C2 (stereo not given) | 70.6
CCOC(=O)c1cc2c(=O)n3ccccc3nc2n(CC2CCCO2)c1=NC(=O)/C=C/c1ccccc1 (stereo not given) | 79
COc1ccc(C(=O)c2cc3ccc(O)cc3oc2=O)cc1 | 162
COCCCn1c(=NC(=O)c2ccccc2)c(C#N)cc2c(=O)n3cccc(C)c3nc21 | 70.6
Cc1ccc(C)c(OCCn2cc(/C=C(\C#N)C(=O)NCc3ccco3)c3ccccc32)c1 | 71.4
CCN(CC)c1ccc(-c2c(C#N)c(N)nc(OC)c2C#N)cc1 | 88.9
CN1CC=C2C(C#N)=C(N)C(C#N)(C#N)C(c3cccc(Cl)c3Cl)C2C1 (stereo not given) | 76.9
Cc1cccc(S(=O)(=O)c2c(N)n(Cc3ccco3)c3nc4ccccc4nc23)c1 | -5.4
Cc1cc(C)c2c(N)c3ccccc3nc2n1 | 72.9
CCC(=O)N(C)/C=C1\Sc2ccccc2C1=O | 68.2
CSc1nsc2nc(=O)c(/C=C3\C=Nc4ccccc43)c(N)n12 | 53.1
CN1CCc2c(sc3c2C(=O)NC(c2cn(Cc4ccccc4)c4ccccc24)N3)C1 (stereo not given) | 118
CCN(CC)c1ccc2c(C)c(-c3ccc(N)cc3)c(=O)oc2c1 | 71.7
CNC(=O)/C(C#N)=C/c1c(N(Cc2ccccc2)Cc2ccccc2)nc2c(C)cccn2c1=O | 69.1
Nc1c(C(=O)NCc2ccccc2)c2nc3ccccc3nc2n1CCCN1CCOCC1 | 71.5
CC(C)N1CC=C2C(C#N)=C(N)C(C#N)(C#N)[C@H](c3ccoc3)[C@H]2C1 | 90.4
COC(=O)c1ccc(C2C(C#N)=C(C)NC3=C2C(=O)CC(C)(C)C3)cc1 (stereo not given) | 77.7
C=CCOc1ccc(C2C(C#N)=C(N)N(Nc3ccccc3)C3=C2C(=O)CCC3)cc1OC (stereo not given) | 128
C=CCn1c(N)c(C(=O)OC(C)(C)C)c2nc3ccccc3nc21 | 138
COc1ccc(N=c2oc3cc(O)ccc3cc2C(=O)Nc2ccccn2)cc1OC | 70.6
COCCCn1c(=NC(C)=O)c(C#N)cc2c(=O)n3cccc(C)c3nc21 | 70.6
CC(=O)NCCN=Cc1sc2ccccc2c1O | 69.2

Structure (SMILES) | inhibition [%]
COCCCNC(=O)c1c(N)n(-c2ccccc2)c2nc3ccccc3nc12 | 70.6
Cc1cccc2cc(C#N)c(NCCCn3ccnc3)nc12 | 96
N#Cc1c(-c2ccc(Cl)cc2)c2c([nH]c1=O)-c1ccccc1OC2 | 70.6
CCCCc1c(C)c(C#N)c2nc3ccccc3n2c1Nc1c(C)n(C)n(-c2ccccc2)c1=O | 67.9
Cc1c(O)ccc2c3c(c(=O)oc12)CCCC3 | 127
CN1CCc2cccc3c2[C@H]1Cc1ccc(O)c(O)c1-3 | 76.8
COCCn1c(-c2ccco2)nc2nc3ccccc3nc21 | 64.7
C=CCNC(=O)C(C#N)c1nc2ccccc2nc1N1CCCCCC1 (stereo not given) | 86.3
CCOC(=O)c1cc2c(=O)n3ccccc3nc2n(CCCOC)c1=NC(=O)c1cccnc1 | 173
CCOC(=O)Nc1c2ccccc2nc2ccccc12 | 123
CCn1nc(NC(=O)c2ccccc2)c2cc3cccc(C)c3nc21 | 108
CC(C)C1OC2(C)OC(=N)C1(C#N)C(C#N)(C#N)C2c1ccccc1 (stereo not given) | 71.5
O=c1oc2c(CN3CCOCC3)c(O)ccc2c2c1CCC2 | 62.3
Cn1c(C(=O)NCc2ccccn2)cc2c(=O)n3ccccc3nc21 | 73.8
CCCc1cc(N2CCN(C(=O)c3ccco3)CC2)n2c(nc3ccccc32)c1C#N | 64.1
CCc1ccc(C2C3=C(CC(C)(C)CC3=O)Nc3c2c(=O)[nH]c2nc(C)nn32)cc1 (stereo not given) | 146
COc1cc(/C=N/N2CCN(C3c4ccccc4-c4ccccc43)CC2)cc(OC)c1O | 57.9
CCOc1ccc2nc(NCCNC(=O)CC)c(C#N)cc2c1 | 68.3
COc1cc(/C=C(\C#N)C(=O)NC(C)C)cc(Cl)c1O | 72
COCCN(C(=O)CN1CCc2ccccc2C1)c1c(N)n(Cc2ccccc2)c(=O)[nH]c1=O | 70.4
O=S(=O)(Nc1ccc(-c2nc3cccnc3s2)cc1)c1ccccc1F | 161
CCCC1C(C#N)=C(N)Oc2cc(C)n(C)c(=O)c21 (stereo not given) | 123
O=C(O)c1cc(-c2ccc(/C=C3\NC(=O)N(c4ccc(Cl)cc4)C3=O)o2)ccc1Cl | 79.3
C=CCc1c(O)c(CC)cc2c(C)cc(=O)oc12 | 70.6
Cc1cc(C(=O)O)ccc1-c1ccc(/C=C2\NC(=O)N(Cc3ccc(F)cc3)C2=O)o1 | 72.1
O=C(/C=C/Nc1nccs1)C(F)(F)Cl | 80.1
CCCn1nc(NC(=O)c2ccco2)c2cc3cc(C)ccc3nc21 | 73.5

Structure (SMILES) | inhibition [%]
CCOCCCn1c(=N)c(C(=O)NCc2ccc3c(c2)OCO3)cc2c(=O)n3ccccc3nc21 | 127
CCCCNC(=O)c1cc2c(=O)n3cccc(C)c3nc2n(CCN2CCOCC2)c1=N | 83.5
Cc1cccn2c(=O)c3cc(C#N)c(=N)n(CCN4CCOCC4)c3nc12 | 150
COc1ccc(C(=O)N=c2c(C#N)cc3c(=O)n4cccc(C)c4nc3n2Cc2ccco2)cc1 | 72.9
CCOC(=O)/C(O)=C(\C#N)c1nc2ccccc2[nH]1 | 99.6
O=c1c(O)c(-c2cccs2)oc2ccccc12 | 71.5
Cc1c(O)ccc2c(CN(C)Cc3ccccc3)cc(=O)oc12 | 70.6
COc1ccccc1-n1c(-c2ccccc2)c[nH]c1=S | 56.5
O=C(NC(Cc1ccccc1)C(=O)Oc1ccc2c(C(F)(F)F)cc(=O)oc2c1)OCc1ccccc1 (stereo not given) | 71.5
Cc1c(C)c2cc(Cl)c(O)c(CN(C)C)c2oc1=O | 170
CCCCC1C(C#N)=C(C)NC2=C1C(=O)CC(C)(C)C2 (stereo not given) | 80.8
CSCCC(NC(C)=O)C(=O)Oc1ccc2c3c(c(=O)oc2c1)CCCC3 (stereo not given) | 81.3
Cn1c(C(=O)N2CCc3ccccc3C2)cc2c(=O)n3ccccc3nc21 | 57.9
CC(NC(=O)OCc1ccccc1)C(=O)Oc1cc2oc(=O)cc(-c3ccccc3)c2cc1Cl (stereo not given) | 64.9
Cc1cccn2c(=O)c3cc(C(=O)NCCc4ccccc4)c(=N)n(CCCn4ccnc4)c3nc12 | 72.9
Cc1ccc(N=Cc2cc3c(cc2O)OC(N)=C(C#N)C3c2ccccc2)cc1 (stereo not given) | 98.4
Cc1c(Cl)sn(-c2ccc(Cl)cc2)c1=O | 52.4
CCCn1nc(NC(=O)c2cccs2)c2cc3cccc(C)c3nc21 | 101
CCOC(=O)c1cc(C(=O)OCC)c2ccccn2c1=O | 71.5
CN1CCc2c(sc3c2C(=O)NC(c2cccs2)N3)C1 (stereo not given) | 130
Cc1ccc(S(=O)(=O)NC(C(=O)Oc2ccc3ccc(=O)oc3c2)c2ccccc2)cc1 (stereo not given) | 144
CN1CCc2c(sc3c2C(=O)NC(c2ccc(-c4cccc(Cl)c4)o2)N3)C1 (stereo not given) | 135
Nc1cccc2c1C(=O)N(C(=O)c1ccc(S(=O)(=O)N3CCCCCC3)cc1)C2=O | 72.9
CC1=C(C#N)C(=O)OC(C)(C)C1 | 60.1
O=c1[nH]c2cc3c(cc2cc1CN(CCc1ccccc1)Cc1nnnn1CC1CCCO1)OCO3 (stereo not given) | 72.9
Nc1c(C(=O)NC2CCCCC2)c2nc3ccccc3nc2n1/N=C/c1ccco1 | 85
Cc1cc(Nc2ccccc2)nc2cc(O)ccc12 | 88.2

Structure (SMILES) | inhibition [%]
COc1ccc2c(C#N)c3ccccn3c2c1 | 70.6
CN1CC=C2C(C#N)=C(N)C(C#N)(C#N)[C@H](c3cccc(Cl)c3)C2C1 (stereo not given in full) | 86.4
O=C(c1ccccc1)c1ccccc1N1C(=O)C=CC1=O | 66
Nc1cccc2c1C(=O)N(C(=O)c1ccc(Cl)c(S(=O)(=O)N3CCCCCC3)c1)C2=O | 72.9
Cc1nc2[nH]c(=O)c3c(n2n1)NC1=C(C(=O)CC(C)(C)C1)C3c1ccc(F)cc1 (stereo not given) | 158
N#Cc1c(N)n(CCCN2CCOCC2)c2nc3ccccc3nc12 | 142
CC(=O)c1c(N2CCN(C)CC2)nc(=S)n(-c2cc(C)ccc2C)c1C | 73.2
CCCCNC(=O)c1cc2c(=O)n3cccc(C)c3nc2n(Cc2ccccc2)c1=N | 72.9
C=CCN(CC=C)c1nc2ccccc2nc1C(C#N)C(=O)OCCOC (stereo not given) | 50.2
OCC(Cc1ccccc1)Nc1c2ccccc2nc2ccccc12 (stereo not given) | 71.5
Clc1ccc(-c2ccnc(-n3cccc3)n2)s1 | 72.8
O=C(CCC(=O)N/N=C/c1cc(Cl)cc(Cl)c1O)NCc1ccccc1 | 70.6
CCOc1cc(-c2cc(-c3ccc(N)cc3)nc(N)c2C#N)ccc1O | 94.4
CNc1oc(/C=C/c2ccccc2)nc1C#N | 70.9
Cc1cccn2c(=O)c3cc(C#N)c(=NC(=O)c4ccco4)n(Cc4ccco4)c3nc12 | 70.7
CC(=O)c1sc2nc(-c3cccs3)ccc2c1N | 92.3
CCCCN(CCCC)c1nc2ccccc2nc1NS(=O)(=O)c1ccc(NC(C)=O)cc1 | 111
Nc1cccc2c1C(=O)N(C(=O)c1cccc(S(=O)(=O)N3CCCCCC3)c1)C2=O | 72.9
COc1cc(-c2nnc(SCc3cc(=O)oc4cc(O)c(O)cc34)o2)cc(OC)c1OC | 102
Cc1cc2cc(C#N)c(NCCNC(=S)NCCCN3CCOCC3)nc2cc1C | 102
Nc1cccc2c1C(=O)N(C(=O)c1ccco1)C2=O | 55.5
COc1cc(OC)c(C2CC(=O)N3CN(c4ccccc4C)CSC3=C2C#N)cc1OC (stereo not given) | 71.4
CCCc1cc2c(OC(=O)CC)c(-c3ccc(C(=O)OCC)o3)c(=O)oc2cc1OC | 10.1
CC(C)OCCCn1c(=NC(=O)c2cccs2)c(C#N)cc2c(=O)n3ccccc3nc21 | 70.6
